Results reported in article PMC4336329 (PLoS ONE, 2015).
The whole screen tested about 310,000 compounds, of which about 14,000 (4.5%) showed an effect of 50% or more. The effect is printed as a negative number. Some of the results follow.

Each compound was assayed against human ether-à-go-go-related gene (hERG) potassium channel (human, UniProt Q12809) (assay: primary screen, population patch clamp on CHO cells stably expressing hERG).
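Also: peak tail current of the secondary pulse compared with the same well before compound.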

Sequence of human ether-à-go-go-related gene (hERG) potassium channel (Q12809 whole entry, looked up): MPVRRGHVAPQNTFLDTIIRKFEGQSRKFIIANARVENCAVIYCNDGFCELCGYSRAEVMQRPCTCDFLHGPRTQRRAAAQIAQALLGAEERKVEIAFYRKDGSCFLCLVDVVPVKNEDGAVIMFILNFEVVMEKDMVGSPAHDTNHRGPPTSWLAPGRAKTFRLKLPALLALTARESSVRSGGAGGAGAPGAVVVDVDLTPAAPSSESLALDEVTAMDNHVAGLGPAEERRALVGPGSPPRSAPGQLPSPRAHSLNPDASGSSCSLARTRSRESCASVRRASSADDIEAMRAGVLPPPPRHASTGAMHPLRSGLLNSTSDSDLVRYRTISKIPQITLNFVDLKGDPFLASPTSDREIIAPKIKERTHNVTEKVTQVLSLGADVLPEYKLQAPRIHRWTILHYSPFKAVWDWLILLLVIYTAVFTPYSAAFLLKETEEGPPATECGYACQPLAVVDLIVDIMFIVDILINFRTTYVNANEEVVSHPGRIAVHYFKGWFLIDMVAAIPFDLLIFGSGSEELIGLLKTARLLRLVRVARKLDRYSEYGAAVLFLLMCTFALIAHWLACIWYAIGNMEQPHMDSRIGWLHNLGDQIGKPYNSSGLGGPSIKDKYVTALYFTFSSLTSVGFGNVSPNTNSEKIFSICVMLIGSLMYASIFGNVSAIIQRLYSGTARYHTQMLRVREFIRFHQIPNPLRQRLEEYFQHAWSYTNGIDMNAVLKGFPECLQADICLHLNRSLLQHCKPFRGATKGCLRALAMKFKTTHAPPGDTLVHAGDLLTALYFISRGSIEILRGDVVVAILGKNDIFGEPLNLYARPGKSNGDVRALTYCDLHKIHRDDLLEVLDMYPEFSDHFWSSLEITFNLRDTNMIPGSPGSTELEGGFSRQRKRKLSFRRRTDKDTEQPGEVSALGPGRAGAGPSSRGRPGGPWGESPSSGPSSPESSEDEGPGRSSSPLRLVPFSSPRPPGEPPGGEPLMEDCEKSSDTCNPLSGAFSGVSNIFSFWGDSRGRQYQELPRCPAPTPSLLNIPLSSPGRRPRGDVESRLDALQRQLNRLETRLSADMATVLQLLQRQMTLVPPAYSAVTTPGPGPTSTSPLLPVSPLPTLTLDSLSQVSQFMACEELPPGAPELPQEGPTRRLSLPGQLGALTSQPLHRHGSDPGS

| Compound | hERG current change (%, negative = inhibition) at 10uM [%] |
| --- | --- |
| Cc1nn(Cc2ccc(Cl)cc2)c(C)c1NC(=O)CCCn1nc(C)c([N+](=O)[O-])c1C | -64.5 |
| O=C(c1ccc(CS(=O)Cc2ccc(Cl)cc2)o1)N1CCN(c2ccccn2)CC1 (stereo not drawn) | -61.2 |
| Cc1cc(N2CCOCC2)nc2ccc(NC(=S)NCc3ccc4c(c3)OCO4)cc12 | -68.5 |
| Cc1ccc(OC(C)C(=O)Nc2ccc(S(=O)(=O)Nc3nccs3)cc2)cc1 (stereo not drawn) | 6.56 |
| COc1cccc(N/C(SCc2ccccc2F)=C(/C#N)C(=O)NCc2cccs2)c1 | 11.3 |
| CCN(C(=O)COC(=O)/C=C/c1cccc(Cl)c1)c1c(N)n(Cc2ccccc2)c(=O)[nH]c1=O | 16.5 |
| CCOP(=O)(OCC)C(NC(=O)CN1C(=O)c2ccccc2S1(=O)=O)C(Cl)(Cl)Cl (stereo not drawn) | 11.5 |
| N#CCC(=O)N/N=C/c1ccc(N2N=C(c3ccccc3)CC2c2ccccc2)cc1 (stereo not drawn) | 25 |
| O=C(NCc1ccc(F)cc1)C1CCC(CNc2c(N3CCOCC3)c(=O)c2=O)CC1 (stereo not drawn) | 9.25 |
| CNC(=S)N(Cc1ccc(OC)cc1)C1CC(=O)N(c2ccc(C(=O)OC)cc2)C1=O (stereo not drawn) | -1.6 |
| Cc1ccccc1NC1=NCCCS1 | 11.1 |
| CC[C@H](C)[C@H](NC(=O)c1ccc(Cl)cc1)C(=O)OCC(=O)c1ccc2c(c1)NC(=O)CO2 | -45.8 |
| O=C(COc1ccccc1)N1CCN(S(=O)(=O)Cc2ccccc2)CC1 | -10.3 |
| O=C(NC1CC1)C1=COCCO1 | 13.2 |
| N#Cc1ccccc1OCC(=O)NCC(c1cccs1)N1CCOCC1 (stereo not drawn) | 0.89 |
| O=C(O)c1ccccc1OCCN1CCCC1=O | 13.3 |
| CCC(C)(C)C1CCc2[nH]nc(C(=O)NCCNC(=O)OC(C)(C)C)c2C1 (stereo not drawn) | 15.7 |
| COc1ccc(OC)c2nc(-c3cccnc3)ccc12 | 10.2 |
| COc1ccc(CC(=O)NNC(=O)CSc2ccc(C)cc2)cc1 | 17.9 |
| CCC1CCCCN1CCCNC(=O)c1ccc(CS(=O)(=O)c2ccc(Br)cc2)o1 (stereo not drawn) | -56.7 |
| CCOC(=O)Cc1nnc(Nc2ccc(C)cc2)c2ccccc12 | -12.4 |
| Cn1c(/C(C#N)=C(\O)c2ccc(Br)s2)nc2ccccc21 | 22.1 |
| CCC(=O)N=c1ccn(C2=Nc3ccccc3NC2=C(C#N)C#N)cc1 | -2.7 |

| Compound | hERG current change (%, negative = inhibition) at 10uM [%] |
| --- | --- |
| Cc1cccc(C)c1NC(=O)C(=O)NCC1CCCN1S(=O)(=O)c1cccs1 (stereo not drawn) | -5.32 |
| CCOC(=O)C1(C)C=C(Nc2ccc(O)cc2)C(=O)N1c1ccc(O)cc1 (stereo not drawn) | 3.89 |
| COc1ccc(Oc2ccc(C(F)(F)F)cc2NC(=O)c2ccc(F)cc2)cc1 | 6.56 |
| O=C(Nc1cnn(Cc2ccc(Cl)cc2)c1)C1CCCC1 | -26.3 |
| NC(=O)C1CCN(CC(=O)Nc2ccccn2)CC1 | 7.82 |
| O=C(NCCc1cccs1)C1CC(c2ccccc2F)=NO1 (stereo not drawn) | -0.278 |
| CCc1cc2c(=O)[nH]c(Cc3ccccc3)nc2s1 | 4.65 |
| COc1ccc(-c2cn[nH]c2N)c(OC)c1 | -7.36 |
| C/C(=N\NC(=O)c1ccc(CN2CCOCC2)cc1)c1ccc([N+](=O)[O-])cc1 | -7.18 |
| CCOC(=O)C1(CCc2ccccc2)CCN(C(=O)C2=C(C)OCCO2)CC1 | -15.2 |
| COC(=O)C1=C(C)N(c2ccc(C)c(C)c2)/C(=C/c2ccco2)C1=O | -1.95 |
| COc1ccccc1C1CN(c2ccccc2)N=C1c1cccs1 (stereo not drawn) | 14.1 |
| CN(C(=O)COC(=O)c1ccccc1OCc1ccc(Cl)cc1)c1c(N)n(Cc2ccccc2)c(=O)[nH]c1=O | 23.5 |
| O=C(N/N=C/c1ccncc1)c1cnccn1 | 2.67 |
| Cc1ccc2nc(N3CCN(C)CC3)c(C#N)cc2c1 | -42.3 |
| CCOc1ccc(C(=O)CN2CCN(S(=O)(=O)c3ccc(OC)cc3)CC2)cc1 | -61.7 |
| Cn1c(=O)cc(SCC(=O)N2CCCC2)c2ccccc21 | 15.2 |
| Cc1cccc(OP(=O)(Oc2cccc(C)c2)OC(c2ccccc2)C(F)(F)F)c1 (stereo not drawn) | 0.253 |
| CCN(CC)S(=O)(=O)c1ccc(N2CCCCC2)c(NC(=O)C2CCN(C(=O)c3ccc(F)cc3)CC2)c1 | -9.33 |
| O=C(c1ccccc1)C1CCN(C(=O)c2ccc(Cl)cc2)CC1 | -46.5 |
| Cc1cccc(NC(=O)c2ccccc2SCc2ccc(F)cc2)n1 | 5.58 |
| CC1CCN(S(=O)(=O)Cc2ccccc2Cl)CC1 | 2.27 |
